Self-cleavage data for 34 variants are collected here from the RNAGym collection of RNA variant scans (doi:10.1093/nar/gkz1192).

Read counts are not given, so values of variants with three or more changes are uncertain.

First the molecules themselves.
B1: CPEB3 Ribozyme (parent)
chain: UAACAGGGGGCCACAGCAGAAGCGUUCACGUCGCAGCCCCUGUCAGAUUCUGGUGAAUCUGCGAAUUCUGCUGUAUAUCUC

In this data set the parent is B1. In words: self-cleavage, relative activity (ratio to wild type); higher = more cleavage; in vitro, sequencing. Summed up:
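Relative activity was defined as the cleaved/total read fraction for a variant divided by the same fraction for the unmutated ribozyme. CPEB3 self-cleaving ribozyme libraries were made by rounds of error-prone PCR, barcoded, and transcribed in vitro with T7 RNA polymerase for 5 hours at 37°C, and cleavage ran through transcription plus a 15 min DNase I step before EDTA. Illumina sequencing of template-switched reverse transcripts gave the reads, and DNA sequencing mapped the barcodes. Averages come from three batches, using variants with at least 5 reads.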
As for CAACAGGGGGCCACAGCAGAAGCGUUCGCGUCGCAGUCACGGUCAGAUUCUGGUGAAUCUGCGAAUUCUGCUGUAUAUCUC [U1C A28G C37U C39A U41G], the self-cleavage worked out at 0.06.

Regarding CAACAGGGGGCCACAGCAGGAGCGUUCACGUCGCAGCCCCUGUCAGACUCCGGUGAAUCUGCGAAUUCUGCUGUAUAACUC [U1C A20G U48C U51C U78A], the self-cleavage was 0.07.

As to CAACAGGGGGCCACAGCAGAAGCGUUCUCGUCGCAGCCCCUGUCAGAUUCUGGUGAAUCUGCGAAUUCUGCUGUAAAUCUC [U1C A28U U76A], the self-cleavage is 0.67.

As to CAACAGGGGGCCACAGCAGUAGCGUUCACGUCGCAGCCCCAGUCAGACUCUGGUGAAUCUGCGAAUUCUGCUGAGUAUCUC [U1C A20U U41A U48C U74A A75G], the self-cleavage came out at 0.13.

As to CAACAGGGGGCCACAGCAGAAGCGUUCACGUCGCGACCCCUGUCAGAUUCUGGUGAAUCUGCGUAUCCUGCUGUAUAUCUC [U1C A35G G36A A64U U67C], the self-cleavage is 0.1.

Turning to CAACAGGGGGCCACAGCAGAAGCGUUCACGUCGCUGCCCCUGUCAUAUACUGGUGAAUCUGCGAGUUCUGCUGUAUAUCUC [U1C A35U G46U U49A A65G], the self-cleavage amounted to 0.18.

CAACAGGGGGCCACAGCAGAUGCGUCCACGUCGCAGCCCCCCUCAGAUUCAGGUGAAUCUGCGAAUUCUGCUGUAUAUCUC [U1C A21U U26C U41C G42C U51A]: the self-cleavage is 0.06.

Consider CAACAGGGGGCCACAGCAGAUGCGUUCACGUCGCAGCCCCUGUCAGAUUCUGGUGAAACUGCGAAUUCUGCUGUAUAUCUC [U1C A21U U58A], for which the self-cleavage is 0.39.

For the variant CAACAGGGGGCCACAGCAGAAGCGUUCGCGUCGCAGCCCCUGUCAGAUUCUGGUGAAACUGCGAAUUCCGCUGUAUAUCUC [U1C A28G U58A U69C], the self-cleavage amounted to 0.14.

As for CAACAGGGGGCCACAGCAGAAGCGUUCUCGUCGCAGCCCCUGUCAGAUUCUGGUGGAUCUGCGUAUUCUGCUGUAUAUCUC [U1C A28U A56G A64U], the self-cleavage was determined as 0.19.

With CAACAGGGGGCCACAGCAGGAGCGUUCACGUCGCAGCCCCAGUCAGAUUCUGGUGAAUCUGCGGAUUCUGCCGUAUAUAUC [U1C A20G U41A A64G U72C C79A], the self-cleavage was 0.04.

Turning to CAACAGGGGGCCACAGCAGAGGCGCUCACGUCGCAGCCCCUGUCAGAUUCUGGUGAAUCUGCGAAUUCUGCUGAAUAGCUC [U1C A21G U25C U74A U78G], the self-cleavage was determined as 0.16.

Regarding CAACAGGGGGCCACAGCAGAAGCGUUCACGUCGCGGCCCCUGUCAGAUUCUGGUGAAUCUGCGGAUUCUGCUGUACAUCUC [U1C A35G A64G U76C], the self-cleavage was 1.18.

Regarding CAACAGGGGGCCACAGCAGAAGCGUUCUCGUCGCAGCCCCUGUCAGAUUCUGGUGAGUCUGCGGAUUCUGCUGUAUAUCUC [U1C A28U A57G A64G], the self-cleavage was 0.55.

Consider CAACAGGGGGCCACAGCUGAAGCGUUCACGUCGCAGCCCCUGUCAGAUUCUGGUGAAUCUGCGAAUUCCGCUGUACAUCUC [U1C A18U U69C U76C], for which the self-cleavage is 0.31.

CAACAGGGGGCCACAGCAGAAGCGUUCUCGUCGCAGCCCCUGUCAGAUUCUGGUGAAUCUGCGAAUUCUGCUGCAUAUCUC [U1C A28U U74C]: the self-cleavage was determined as 1.22.

On to CAACAGGGGGCCACAGCAGAAGCGUUCACGUCGCUGCCCCUGUCAGAUUCUGGUGAAUCUGCGAAUUCUGCCGUAUAUCUC [U1C A35U U72C], for which the self-cleavage was 0.5.

Regarding CAACAGGGGGCCACAGCAGAGGCGUUCACGUCGCAGCCCCUGUCAGAUUCUGGUGAGUCUGCGAAUUCUGCUGUAUAUCCC [U1C A21G A57G U80C], the self-cleavage worked out at 0.64.

Take CAACAGGGGGCCACAGCAGAAGCGUUCACGUCGCUGCCACUGUCAGAUUCUGGUGAAUCUGCGAAUUCUGCUGUUUAUCUC [U1C A35U C39A A75U]: the self-cleavage was determined as 0.4.

Turning to CAACAGGGGGCCACAGCAGAAGCGUUCUCAGCGCAGCCCCUGUCAGAUGCUGGUGAAUCUGCGAAUUCCGCUGUAUAUCUC [U1C A28U G30A U31G U49G U69C], the self-cleavage came out at 0.06.

On to CAACAGGGGGCCACAGCAGAAGCGUUCUCGUCGCAGCCCCUGUCAGAUCCUGGUGAAUCAGCGAAUUCUGCUGUAUAUCUC [U1C A28U U49C U60A], for which the self-cleavage came to 0.18.

On to CAACAGGGGGCCACAGCAGAGGCGUUCCCGUCGCAGCCCCUGUCAGAUUCUGGUGAAUCUGCGAAUUCUGCUUAAUAUCUC [U1C A21G A28C G73U U74A], for which the self-cleavage was determined as 0.49.

Regarding CAACAGGGGGCCACAGCAGUAGCGUUCACGUCGCAGCCCCUGUCAGAUUCUGGUGUAUCCGCGAAUUCUGCUGUAUAUCCC [U1C A20U A56U U60C U80C], the self-cleavage was 0.21.

As to CAACAGGGGGCCACAGCAGAAGCGUUCGCGACGCAGCCCCUGCCAGAUUCUGGUGUAUCUGCGAAUUCUGCUGUAAACCUC [U1C A28G U31A U43C A56U U76A U78C], the self-cleavage stood at 0.05.

Regarding CAACAGGGGGCCACAGCAGAAGCGUUCGCGUCGCAGCCCCUGUCUGAUUCUGGUGAAUCUGCGAAUUCUGCGGUAUAUCUC [U1C A28G A45U U72G], the self-cleavage worked out at 0.28.

For CAACAGGGGGCCACAGCAGAGGCGUUCACGUCGCAGCUCCUGUCAGACUCUGGUUAAUCUGCGAAUUCUGCUGUAUAUCUC [U1C A21G C38U U48C G55U], the self-cleavage was 0.04.

As to CAACAGGGGGCCACAGCAGAUGCGUUCACGUCGCAGCCCCAGUCAGAUUCUGGUGAAUCUGCGAAUUCUGCUGUAUAUCUC [U1C A21U U41A], the self-cleavage worked out at 0.48.

CAACAGGGGGCCACAGCAGAAGCGUUCACGUCGCUGCCCCUGUCAGAUUCCGGUGAAUCUGCGUAUUCUGCUGUAUACCAC [U1C A35U U51C A64U U78C U80A]: the self-cleavage was determined as 0.1.

In the case of CAACAGGGGGCCACAGCAGGAGCGUUCAUGUCGCAGCCCCUGUCAGAUUCAGGCGAAUCAGCGUAUUCUGCUGUAUAUCUC [U1C A20G C29U U51A U54C U60A A64U], the self-cleavage was determined as 0.08.

CAACAGGGGGCCACAGCAGAAGCGUUCACGUCGCGGCCCCUGACAGAUUCUGGUGAAUCUGCGAAUUCUGCUGUAUAUCUC [U1C A35G U43A]: the self-cleavage stood at 1.33.

For CAACAGGGGGCCACAGCAGAAGCGUUCACGUCGCGGCCCCUGUCGGAUUCUGGUGAAUCUGCGAAUUCUGCUGAAUAUCUC [U1C A35G A45G U74A], the self-cleavage stood at 1.28.

As for CAACAGGGGGCCACAGCAGAGGCGUUCACGUCGCAGCCCCUGUCAGGUUCUGGUGAAUGUGCGAAUUCUGCUGUAUAUCUC [U1C A21G A47G C59G], the self-cleavage was 0.23.

In the case of CAACAGGGGGCCACAGCAGAAGCGUUCGCGUCGCAGCCCCUGUCAGAUUCUGGUGAAUCUGCGAAUCCUGCUGUAUAUCUC [U1C A28G U67C], the self-cleavage is 0.16.

In the case of CAACAGGGGGCCACAGCAGAAGCGUUCACGUCGCUGCCCAUGUCAGAUUCUGGAGAAUCUGCGAAUUCUGCUGUUUGUCUC [U1C A35U C40A U54A A75U A77G], the self-cleavage was determined as 0.31.
